Results are given in words; binding and its absence hold for the method and conditions named. Binding seen in cells or lysates may run through a third protein. Some binding calls cover weakened binding; strength is not graded here.

The chains behind the UniProt entries cited, without tags or fusion partners. Residues count along the entry.
UniProt P0ADC1, residues 19-193: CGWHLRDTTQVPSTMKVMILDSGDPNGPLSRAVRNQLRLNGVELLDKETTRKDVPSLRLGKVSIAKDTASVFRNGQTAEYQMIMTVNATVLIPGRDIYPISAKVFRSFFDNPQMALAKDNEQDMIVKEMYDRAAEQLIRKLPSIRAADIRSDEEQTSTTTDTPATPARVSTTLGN

Assay [1] addresses LptM^His (Escherichia coli) (UniProt P0ADN6). As to the kind of experiment: pull-down; Ni-affinity purification of LptM^His from the DDM-solubilized envelope fraction (native conditions); Ni-NTA 2 h at 4 °C, 50 mM Tris-HCl pH 8, 150 mM NaCl, DDM; SDS-PAGE, Coomassie staining or Western blotting.
The target in assay [2] is LptE^His (Escherichia coli) (UniProt P0ADC1). The assay is described as follows: pull-down; Ni-affinity purification of LptE^His from the DDM-solubilized envelope fraction of wild-type (lptM^+) cells with pLptDE^His; Ni-NTA 2 h at 4 °C, 50 mM Tris-HCl pH 8, 150 mM NaCl, DDM; SDS-PAGE or BN-PAGE, Coomassie staining or Western blotting.

B1: OmpA (protein, UniProt P0A910 22-346)
chain: APKDNTWYTGAKLGWSQYHDTGFINNNGPTHENQLGAGAFGGYQVNPYVGFEMGYDWLGRMPYKGSVENGAYKAQGVQLTAKLGYPITDDLDIYTRLGGMVWRADTKSNVYGKNHDTGVSPVFAGGVEYAITPEIATRLEYQWTNNIGDAHTIGTRPDNGMLSLGVSYRFGQGEAAPVVAPAPAPAPEVQTKHFTLKSDVLFNFNKATLKPEGQAALDQLYSQLSNLDPKDGSVVVLGYTDRIGSDAYNQGLSERRAQSVVDYLISKGIPADKISARGMGESNPVTGNTCDNVKQRAALIDCLAPDRRVEIEVKGIKDVVTQPQA
As for B1, in assay [1], the binding result is “no binding”.

B2: LptM (endogenous) (peptide, UniProt P0ADN6 20-67)
chain: CGLKGPLYFPPADKNAPPPTKPVETQTQSTVPDKNDRATGDGPSQVNY
modifications: tri-acylated (mature tri-acylated LptM)
For B2, the binding result in assay [2] was “binds”.

B3: LptB (protein, UniProt P0A9V1 1-241)
chain: MATLTAKNLAKAYKGRRVVEDVSLTVNSGEIVGLLGPNGAGKTTTFYMVVGIVPRDAGNIIIDDDDISLLPLHARARRGIGYLPQEASIFRRLSVYDNLMAVLQIRDDLSAEQREDRANELMEEFHIEHLRDSMGQSLSGGERRRVEIARALAANPKFILLDEPFAGVDPISVIDIKRIIEHLRDSGLGVLITDHNVRETLAVCERAYIVSQGHLIAHGTPTEILQDEHVKRVYLGEDFRL
As for B3, the binding result in assay [1] was “binds”.

B4: LptA (protein, UniProt P0ADV1 28-185)
chain: VTGDTDQPIHIESDQQSLDMQGNVVTFTGNVIVTQGTIKINADKVVVTRPGGEQGKEVIDGYGKPATFYQMQDNGKPVEGHASQMHYELAKDFVVLTGNAYLQQVDSNIKGDKITYLVKEQKMQAFSDKGKRVTTVLVPSQLQDKNNKGQTPAQKKGN
Consider B4, for which the binding result in assay [1] is reported as “binds”.

These data come from publication PMC10567701.
